# Where a chain is given by its changes, count along the chain named. Entries after “also recorded” stand apart in the source; their conditions may differ.
# B1: I-395: anti-CD39 antibody, VH SEQ ID NO: 14, VL SEQ ID NO: 15 (antibody, listed as Mus musculus, V domains shown)
# VH: EVQLQQSGPELVKPGASVRMSCKASGYTFTDYNMHWVKKNHGKGLEWIGYINPNNGGTTYNQKFKGKATLTVNTSSKTAYMELRSLTSEDSAVYYCTRGGTRFASWGQGTLVTVSA
# VL: NIVLTQSPASLAVSLGQRATISCRASESVDNYGISFMYWFQQKPGQPPKLLIYAASTQGSGVPARFSGSGSGTDFSLNIHPMEEDDTAMYFCQQSKEVPFTFGSGTKLEIK
# B2: I-396: anti-CD39 antibody, VH SEQ ID NO: 22, VL SEQ ID NO: 23 (antibody, listed as Mus musculus, V domains shown)
# VH: EVQLQQSGAELVKPGASVKLSCIVSGFNIKDTYINWVKQRPEQGLEWIGRIDPANGNTKYDPKFQGKATMTSDTSSNTAYLHLSSLTSDDSAVYYCARWGYDDEEADYFDSWGQGTTLTVSS
# VL: B1 VL with N1D, Y38N, T57N, H80L, D85V, T87A, Q93H, F100W, S104G
# Legend:
# [1] = molecular target: T1, cell-membrane bound CD39 (CD39-expressing cells) (Homo sapiens, UniProt P49961); experiment: Inhibition of the enzymatic activity of cellular CD39, Cell Titer Glo; type: cell-based
# T1 construct: host or cells: CD39-expressing cells
# T1 sequence (P49961 1-510): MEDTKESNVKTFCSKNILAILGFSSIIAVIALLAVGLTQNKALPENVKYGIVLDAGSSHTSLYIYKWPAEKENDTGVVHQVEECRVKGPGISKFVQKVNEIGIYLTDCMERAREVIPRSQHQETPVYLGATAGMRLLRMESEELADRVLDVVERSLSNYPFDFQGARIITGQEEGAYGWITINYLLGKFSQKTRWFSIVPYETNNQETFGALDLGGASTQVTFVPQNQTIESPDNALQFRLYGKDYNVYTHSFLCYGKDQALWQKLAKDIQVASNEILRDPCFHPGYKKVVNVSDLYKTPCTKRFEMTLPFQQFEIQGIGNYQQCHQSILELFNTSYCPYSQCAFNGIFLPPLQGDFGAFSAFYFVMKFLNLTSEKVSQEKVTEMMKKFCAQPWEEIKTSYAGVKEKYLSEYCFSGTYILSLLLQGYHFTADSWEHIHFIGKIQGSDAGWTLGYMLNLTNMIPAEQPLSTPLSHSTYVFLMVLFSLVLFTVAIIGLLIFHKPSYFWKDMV
# Experimental: The ability of an antibody to inhibit cells expressing CD39 protein can be tested by detecting ATP after incubating test antibody with cells (e.g., Ramos cells, cells transfected with CD39, etc.). See, e.g., Example 1. Cells can be incubated for 1 hour at 37° C. with test antibody. Cells are then incubated with 20 μM ATP for 1 additional hour at 37° C. Plates are centrifuged for 2 min at 400 g and cell supernatant are transferred in a luminescence microplate (white wells). CTG is added to the supernatant and emitted light is quantified after a 5 min incubation in the dark using an Enspire™ luminometer. Anti-CD39 antibody efficacy is determined by comparing emitted light in presence of antibody with ATP alone (maximal light emission) and ATP together with cells (minimal light emission).
# The inhibition of the CD39 enzymatic activity in CD39-expressing cells by antibodies was evaluated using Cell Titer Glo™ (Promega, reference G7571) that allows assessment of ATP hydrolysis through use of a reagent that generates a luminescent signal proportional to the amount of ATP present. The assay was thus designed to permit assessment of the inhibition of ATP hydrolyzed by CD39 in the cell culture supernatant. Briefly, 5×10^4 Ramos human lymphoma cells, 5×10^3 human CD39-, cynomolgus CD39—and mouse CD39-expressing CHO cells, were incubated 1 hour at 37° C. with anti-CD39 antibodies from 30 μg/ml to 5×10^−4 μg/ml. Cells were then incubated with 20 μM ATP for 1 additional hour at 37° C. Plates were centrifuged for 2 min at 400 g and 50 μl cell supernatant are transferred in a luminescence microplate (white wells). 50 μl CellTiter-Glo® Reagent (CTG) was added to the supernatant and emitted light was quantified after a 5 min incubation in the dark using a Enspire™ luminometer. Anti-CD39 antibody efficacy was determined by comparing emitted light in presence of antibody with ATP alone (maximal light emission) and ATP together with cells (minimal light emission).
# [2] = molecular target: T2, soluble recombinant human CD39 protein (Homo sapiens, UniProt P49961); experiment: Inhibition of the enzymatic (ATPase) activity of soluble CD39, Cell Titer Glo; type: biochemical; details: for inhibition of the enzymatic (ATPase) activity of soluble CD39 protein: 400 ng/ml soluble CD39, 20 μM ATP; for relative potency for inhibition of soluble CD39: FIG. 2B, comparison of I-394, I-395, I-396
# T2 construct: made in house; host or cells: CHO cells
# T2 sequence (P49961 with tags, fused parts or gaps): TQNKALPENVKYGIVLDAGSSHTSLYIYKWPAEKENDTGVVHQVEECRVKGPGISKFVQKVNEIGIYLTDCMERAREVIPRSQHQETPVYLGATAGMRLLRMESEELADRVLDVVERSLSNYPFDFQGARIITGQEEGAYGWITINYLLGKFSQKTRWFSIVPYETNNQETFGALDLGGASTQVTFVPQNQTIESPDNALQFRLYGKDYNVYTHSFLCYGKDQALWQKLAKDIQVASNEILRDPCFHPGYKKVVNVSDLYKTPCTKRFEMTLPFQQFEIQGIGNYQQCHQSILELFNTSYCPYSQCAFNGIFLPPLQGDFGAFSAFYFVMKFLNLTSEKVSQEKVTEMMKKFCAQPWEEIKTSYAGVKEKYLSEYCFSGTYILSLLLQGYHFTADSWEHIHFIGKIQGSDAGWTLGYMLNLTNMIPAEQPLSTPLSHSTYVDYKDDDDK
# Experimental: The ability of an antibody to inhibit soluble recombinant human CD39 protein can be tested by detecting ATP after incubating test antibody with soluble CD39 protein (e.g., the CD39 protein having the amino acid sequence of SEQ ID NO: 5, as produced in Example 1, optionally further comprising a purification tag or other functional or non-functional non-CD39-derived amino acid sequence). See, e.g., Example 1. Briefly, ATP can be quantified using the Cell Titer Glo™ (Promega), in an assay in which dose ranges of test antibody are incubated with soluble recombinant human CD39 protein described in Example 1, for 1 hour at 37° C. 20 μM ATP are added to the plates for 30 additional minutes at 37° C. before addition of CTG reagent. Emitted light is quantified using an Enspire™ luminometer after a short incubation period of 5 min in the dark.
# The inhibition by antibodies of the enzymatic activity of soluble CD39 protein produced was evaluated using Cell Titer Glo™ (Promega, reference G7571) that allows assessment of ATP hydrolysis through use of a reagent that generates a luminescent signal proportional to the amount of ATP present. In this way, inhibition of the soluble-CD39-mediated ATP hydrolysis can be assessed. Briefly, dose ranges of anti-CD39 antibodies from 100 μg/ml to 6×10^−3 μg/ml were incubated with 400 ng/ml of soluble recombinant human CD39 protein having the amino acid sequence described in the Methods section (SEQ ID NO: 54), for 1h at 37° C. 20 μM ATP was added to the plates for 30 additional minutes at 37° C. before addition of CTG (Cell Titer Glo) reagent. Emitted light was quantified using an Enspire™ luminometer after a short incubation period of 5 min in the dark. Anti-CD39 antibody efficacy was determined by comparing emitted light in presence of antibody with ATP alone (maximal light emission) and ATP together with soluble CD39 protein (minimal light emission).
Molecule,inhibition of the enzymatic activity of cellular (cell-membrane bound) CD39 [1],potency and maximal inhibition of cellular CD39 compared to BY40 ([1]; FIG. 2A),inhibition of the enzymatic (ATPase) activity of soluble CD39 protein [2],relative potency for inhibition of soluble CD39 [2]
B1,inhibit,greater potency and maximal inhibition; also recorded: greater potency at all concentrations as well as greater maximal inhibition,inhibit,followed by I-395
B2,inhibit,–,inhibit,lower potency

# Reference: patent US20230099801A1, “RESTORATION OF T CELL ACTIVITY VIA THE CD39/CD73 AXIS” (INNATE PHARMA, priority 2017, published 2023)
